{"source": "PubChem BioAssay (NCI)", "tested_on": "NCI-H322M lung", "experiment": "growth of human tumour cells (NCI), 48 h", "note": "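Protocol summary: plate cells (96-well), add compound at 5 concentrations, incubate 48 h, interpolate endpoints linearly. GI50 is the concentration that inhibits growth by half. TGI is the concentration that stops growth completely.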", "data": [{"smiles": "O=C(CSc1nnc(-c2ccc(-c3nc4ccccc4[nH]3)cc2)o1)Nc1ccc(Br)cc1", "values": [{"measurement": "GI50", "result": 5.01, "unit": "µM"}, {"measurement": "TGI", "result": 18, "unit": "µM"}]}]}
